# About 16,000 (7.3%) of roughly 220,000 compounds were called active. Inconclusive means that the source gave no clear call. Such entries were picked first, then a sample of the others. Calls come from the whole dose curve; as a rule, active = well fitted inhibition curve with a large enough effect (not every such curve was filed as active); inconclusive = small, poorly fitted or top-dose-only effect, or another doubt; inactive = no such curve, though single readings can be large or run the other way. Potencies of inconclusive entries are left out as doubtful fits.
# Target: Aldehyde dehydrogenase 1A1 (Homo sapiens) (UniProt P00352)
# Chain of UniProt P00352 (P00352 whole entry, looked up): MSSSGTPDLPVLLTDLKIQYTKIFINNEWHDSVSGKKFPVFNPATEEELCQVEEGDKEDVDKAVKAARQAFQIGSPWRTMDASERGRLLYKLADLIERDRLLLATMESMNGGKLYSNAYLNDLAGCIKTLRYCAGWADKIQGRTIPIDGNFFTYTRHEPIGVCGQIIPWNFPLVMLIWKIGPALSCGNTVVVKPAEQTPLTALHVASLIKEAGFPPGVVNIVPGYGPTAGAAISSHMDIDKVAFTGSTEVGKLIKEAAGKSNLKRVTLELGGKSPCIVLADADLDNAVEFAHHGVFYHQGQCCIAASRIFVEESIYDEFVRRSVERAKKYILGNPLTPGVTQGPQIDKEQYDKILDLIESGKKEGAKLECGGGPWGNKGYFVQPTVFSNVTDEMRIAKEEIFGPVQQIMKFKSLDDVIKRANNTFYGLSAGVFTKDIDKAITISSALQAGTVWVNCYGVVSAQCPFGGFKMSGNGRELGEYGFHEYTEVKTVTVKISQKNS
# Test: qHTS Assay for Inhibitors of Aldehyde Dehydrogenase 1 (ALDH1A1)
# Settings: Purified ALDH1A1, NADH fluorescence, propionaldehyde substrate; series mostly up to 75.3 µM
# Potency is the fitted concentration of half-maximal effect; tags give direction and shape of the fitted curve.
row,SMILES,Potency
1,COc1cc2c(C=O)c3c4c(cc(OC)c(OC)c4c2cc1OC)CCN3C,"inconclusive [inhibitor, single point]"
2,CCOC(=O)c1cc2occc2n1CC(=O)N1CCCc2ccccc21,active: 8.91 µM
3,CC1(C)CC(NC(=S)Nc2ccc([N+](=O)[O-])cc2)CC(C)(C)N1,"inconclusive [inhibitor, single point]"
4,O=c1cc(N2CCN(c3ccccc3)CC2)[nH]c(=O)n1-c1ccccc1,"inconclusive [inhibitor, single point]"
5,Cc1nc2cc(N3CCCCC3)c(NC(=O)c3ccncc3)cc2c(=O)n1Cc1ccccc1,"inconclusive [inhibitor, full curve]"
6,O=C(CN1CCN(c2ccc(F)cc2)CC1)c1ccc2c(c1)OCO2,active: 8.91 µM
7,CCOc1ccc(-c2cc(C(=O)NN3CCN(C)CC3)c3cc(Cl)ccc3n2)cc1,"inconclusive [inhibitor, single point]"
8,O=C(Cc1cccs1)Nc1cccc(-c2nc3cc4ccccc4cc3[nH]2)c1,"inconclusive [inhibitor, partial curve]"
9,CCOC(=O)C1=C(N)n2c(s/c(=C\c3cccs3)c2=O)=C(C(=O)OCC)C1c1cccs1 (stereo unspecified),inactive
10,COc1ccccc1-c1nccc(NCc2cccnc2)n1,"inconclusive [inhibitor, single point]"
11,CCCOc1ccc(C2/C(=C(\O)c3c(C)[nH]c(C(=O)OC)c3C)C(=O)C(=O)N2CCN(C)C)cc1 (stereo unspecified),"inconclusive [inhibitor, single point]"
12,CN1CCN(c2cc(-c3ccc(N(C)C)cc3)ncn2)CC1,"inconclusive [inhibitor, partial curve]"
13,O=C(Nc1ccc2c3c(cccc13)CC2)c1ccc(Br)o1,"inconclusive [inhibitor, single point]"
14,C=CCNC(C(=O)Nc1cccc(OC)c1)c1ccccc1 (stereo unspecified),"inconclusive [inhibitor, single point]"
15,CCCCC(CC)CNCC(CC)CCCC (stereo unspecified),active: 25.1 µM
16,O=C(O)c1cnn2c1NC(c1ccc(F)cc1)CC2C(F)(F)F (stereo unspecified),"inconclusive [inhibitor, single point]"
17,O=C(Nc1ccc(OC(F)F)cc1)Nc1cccc(C(F)(F)F)c1,inactive
18,O=C(Nc1ccc(CN2CCOCC2)cc1)c1ccc(-c2cc(Cl)ccc2Cl)o1,"inconclusive [inhibitor, single point]"
19,C=CCN=C1SC(C)(C)C(=O)N1S(=O)(=O)c1ccc(C)cc1,"inconclusive [inhibitor, partial curve]"
20,COc1ccc(-c2cc(C(F)(F)F)n3nc(C(=O)NCc4ccco4)c(Cl)c3n2)cc1,"inconclusive [inhibitor, single point]"
21,CCn1c(SCC(=O)Nc2ccc3c(c2)oc2ccccc23)nnc1-c1ccc(N)cc1,active: 25.1 µM
22,CCCc1cc(Nc2ccccc2OCC)n2ncnc2n1,inactive
23,O=S(=O)(/N=C(/Nc1ccccn1)c1ccc(Cl)cc1)c1ccc(Cl)cc1,"inconclusive [inhibitor, single point]"
24,Nc1c(C(=O)Nc2ccccc2)sc2nc3c(c(-c4ccco4)c12)CCC3,inactive

row,SMILES,Potency
1,O=[N+]([O-])c1ccc(N2CCN(C(=S)Nc3ccc(F)cc3F)CC2)cc1,active: 11.2 µM
2,CC(C)N(C(=O)Nc1ccc2nccnc2c1)C(C)C,"inconclusive [inhibitor, single point]"
3,COC(=O)Cc1[nH]nc2c1C1(C(=O)N(Cc3ccc(Cl)cc3)c3ccccc31)C(C#N)=C(N)O2 (stereo unspecified),"inconclusive [inhibitor, partial curve]"
4,S=c1[nH]nc(-c2ccccc2)n1/N=C/c1ccc(-c2ccccc2Cl)o1,inactive
5,CC(C(=O)NCc1ccco1)n1cc(C(=O)c2ccco2)c2ccccc21 (stereo unspecified),inactive
6,COc1ccccc1C(=O)NCC1CCN(c2ccc(S(=O)(=O)N3CCOCC3)cc2)CC1,inactive
7,C=CCc1ccc(OCCOCCOc2ccccc2[N+](=O)[O-])c(OC)c1,"inconclusive [inhibitor, single point]"
8,CC(=O)NCCNc1ccnc(-c2ccccc2C)n1,"inconclusive [inhibitor, single point]"
9,COc1cc(/C=C2\SC(c3ccc(C)cc3)=NC2=O)ccc1O,"inconclusive [inhibitor, single point]"
10,O=C1CN(C(=O)c2ccccc2F)c2ccccc2N1,inactive
11,O=C(Nc1ccc(N2CCOCC2)cc1)c1ccc([N+](=O)[O-])cc1,inactive
12,OCCCc1nc2n(n1)C(c1cccs1)C=C(c1ccc(Br)cc1)N2 (stereo unspecified),"inconclusive [inhibitor, single point]"
13,CCN1/C(=C/c2ccc3cccc(C)c3[n+]2CC)Sc2ccccc21,"inconclusive [inhibitor, single point]"
14,O=S(=O)(CCNCc1cccs1)c1ccc(Cl)cc1,"inconclusive [inhibitor, single point]"
15,COc1cccc(CNC(=O)CCS(=O)(=O)c2cccc3nonc23)c1,"inconclusive [inhibitor, single point]"
16,CCOC(=O)c1cc(-c2ccccc2)sc1NC(=O)c1ccc(OC)c(OC)c1,"inconclusive [inhibitor, partial curve]"
17,CCOC(=O)CCCCC(=O)c1[nH]c(=O)[nH]c1CSc1nc(-c2ccccc2)c(C#N)c(=O)[nH]1,active: 7.94 µM
18,O=c1oc(-c2cccs2)nc2ccccc12,"inconclusive [inhibitor, single point]"
19,Cc1cc(-n2c(C)cc(C(=O)CSc3nnc4sc5ccccc5n34)c2C)no1,inactive
20,CCOc1ccc(NC(=S)NC(=O)c2c(Cl)cnn2CC)c([N+](=O)[O-])c1,"inconclusive [inhibitor, single point]"
21,CN(NC(=S)Nc1ccc(OC(F)F)cc1)C(=S)Nc1ccc(OC(F)F)cc1,inactive
22,CCN(CC)c1ccc(NC(=O)c2ccccc2Br)cc1S(=O)(=O)Nc1ccccc1OC,active: 1.58 µM
23,CC1C[C@@]2(NC(=O)NC2=O)C(C)CN1C (stereo partly specified),inactive
24,CC(=O)Nc1ccc(C(=O)N/N=C/c2ccccc2OCc2ccccc2)cc1,inactive

row,SMILES,Potency
1,COc1ccc(C(=O)/C=C/c2ccc(O)cc2)cc1,"inconclusive [inhibitor, partial curve]"
2,Cc1ccc(C2/C(=C(/O)c3ccc(OC(C)C)cc3)C(=O)C(=O)N2CCN2CCOCC2)cc1 (stereo unspecified),"inconclusive [inhibitor, single point]"
3,O=C(CN1C(=O)C2CC=CCC2C1=O)Nc1ccc(S(=O)(=O)NC2=NCCCCC2)cc1 (stereo unspecified),inactive
4,O=C(Nc1ccccc1NC(=O)c1csnn1)c1csnn1,"inconclusive [inhibitor, single point]"
5,O=C(NN=C1c2ccccc2-c2ccccc21)c1ccccc1,"inconclusive [inhibitor, single point]"
6,Cc1noc(C)c1-c1cc(NC2CC2)ncn1,inactive
7,O=C(c1sc2ccccc2c1Cl)N(Cc1cccs1)C1CCS(=O)(=O)C1 (stereo unspecified),"inconclusive [inhibitor, single point]"
8,COC(=O)/C(C#N)=C/c1ccc(N2CCOCC2)c([N+](=O)[O-])c1,"inconclusive [inhibitor, partial curve]"
9,CC(C)c1cc(C(=O)Nc2cc(Cl)ccc2O)no1,inactive
10,Cc1ccc(-c2c(C(=O)NCc3ccccc3)oc(=O)c3ccccc23)cc1,"inconclusive [inhibitor, partial curve]"
11,Nc1cccc(-n2nnnc2CN2CCOCC2)c1,"inconclusive [inhibitor, single point]"
12,Cc1ccc(-c2nnn(CC(=O)N(Cc3ccccc3F)C(C(=O)NC3CCCC3)c3ccncc3)n2)o1 (stereo unspecified),"inconclusive [inhibitor, single point]"
13,COCCn1c(=O)[nH]c2cc(C(=O)NCc3cccnc3)ccc2c1=O,"inconclusive [inhibitor, partial curve]"
14,COc1ccc(-c2[nH]ncc2CN2CCN(Cc3cccs3)CC2)cc1F,"inconclusive [inhibitor, single point]"
15,O=C(Cn1c(Cc2ccccc2)nc2ccccc21)NCc1ccc2c(c1)OCO2,active: 15.8 µM
16,COC(=O)c1cc(OC)c(OC)cc1NC(=O)CC1CCCCC1,"inconclusive [inhibitor, partial curve]"
17,Cc1ccc(CCNC(=O)C2CCCN(C(=O)c3cc4sccc4n3C)C2)cc1 (stereo unspecified),active: 8.91 µM
18,CCOC(=O)/C(C#N)=C/C=C1/C=CC=CN1C,"inconclusive [inhibitor, single point]"
19,COc1ccc(OCC(=O)N/N=C2\CCCCc3ccccc32)cc1,inactive
20,COC1CCN(C(=O)CC2C(=O)NCCN2CC2CCCCC2)CC1 (stereo unspecified),"inconclusive [inhibitor, partial curve]"
21,O=C(NCc1ccccc1)c1ccc(Cl)cc1[N+](=O)[O-],inactive
22,O=C(CN1C(=O)C2CCCCC2C1=O)Nc1nccs1 (stereo unspecified),"inconclusive [inhibitor, single point]"
23,CCc1nnc(NS(=O)(=O)c2ccc(N/C=C\C(=O)c3ccc(F)cc3)cc2)s1,"inconclusive [inhibitor, partial curve]"
